Experimental data reported in the supplement of paper PMC5998384.

Experiments:
HeLa Kyoto [1] = assay: melting temperature (median over replicates), in situ; higher = more thermally stable
HeLa Kyoto [2] = assay: solubility change mitosis vs G1/S (difference of NP-40 vs SDS log2 ratios) (log2 ratio difference); higher = more soluble in mitosis
HeLa Kyoto [3] = assay: solubility in G1/S (NP-40 vs SDS abundance) (log2 ratio); higher = more soluble; details: cell cycle stage: G1/S
HeLa Kyoto [4] = assay: thermal stability score vs G1/S (z-score of summed log2 fold changes over temperatures); higher = more thermally stable than in G1/S
[5] = cell cycle stage: early G1 (4.5 h after nocodazole release)
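For melting temperature (median over replicates), in situ in this document: HeLa Kyoto cells synchronized by double thymidine or nocodazole block, proteins quantified by TMT10plex mass spectrometry, three independent biological replicates.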
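For solubility change mitosis vs G1/S (difference of NP-40 vs SDS log2 ratios) in this document: synchronized HeLa Kyoto cells (double thymidine block for G1/S, nocodazole release for mitosis), protein amounts in NP-40 versus SDS lysates quantified by mass spectrometry, three biological replicates.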
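For solubility in G1/S (NP-40 vs SDS abundance) in this document: HeLa Kyoto cells arrested at G1/S by double thymidine block, proteins quantified by TMT10plex mass spectrometry in mild NP-40 versus SDS extracts, three biological replicates.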
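For thermal stability score vs G1/S (z-score of summed log2 fold changes over temperatures) in this document: synchronized HeLa Kyoto cells, proteins quantified by TMT10plex mass spectrometry, three biological replicates, mitosis taken 0.5 h after nocodazole release, G1/S directly after double thymidine block.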

Row | Substance | melting temperature (HeLa Kyoto [1]; cell cycle stage: G1/S) | melting temperature (HeLa Kyoto [1]; cell cycle stage: mitosis) | solubility change mitosis (log2) (HeLa Kyoto [2]) | solubility in G1/S (log2) (HeLa Kyoto [3]) | thermal stability score (HeLa Kyoto [4]; [5]) | thermal stability score (HeLa Kyoto [4]; cell cycle stage: mitosis)
1 | LARP4 (sequence left out) | 49.6 °C | 49.9 °C | 0.656 | -1.1 | -0.987 | -1.66
2 | MGKDYYQTLGLARGASDEEIKRAYRRQALRYHPDKNKEPGAEEKFKEIAEAYDVLSDPRKREIFDRYGEEGLKGSGPSGGSGGGANGTSFSYTFHGDPHAMFAEFFGGRNPFDTFFGQRNGEEGMDIDDPFSGFPMGMGGFTNVNFGRSRSAQEPARKKQ[skipping about 150 residues]PERIPQTSRTVLEQVLPI [DNAJB1] | 48.7 °C | 49.3 °C | 0.00135 | 0.361 | 0.967 | 0.315
3 | NDUFB5 (sequence left out) | 51.9 °C | 54.6 °C | -0.165 | 0.0453 | 0.2 | -0.782
4 | PSMC5 (sequence left out) | 53.6 °C | 53.4 °C | -0.157 | 0.247 | 1.01 | 0.335
